# From the supplement of paper PMC8728848
# The other results are listed elsewhere or left out.
# Experiments:
# Assay in all cases: glycan array binding signal (z-score within array); higher = stronger binding
# Details in all cases: glycan notation: IUPAC condensed, linker removed; mutation: W10H
# [1] = biological target: Neu5Ac(a2-6)Gal(b1-4)GlcNAc(b1-2)Man(a1-3)[Man(a1-6)]Man(b1-4)GlcNAc(b1-4)GlcNAc
# Method in brief: (§1)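 Glycan array data came from 3228 arrays in the Consortium for Functional Glycomics database, and only arrays with an available protein sequence were kept. Glycan names were put into IUPAC-condensed notation, and columns mapping to the same glycan were averaged. The binding signal is a within-array Z-score, averaged across arrays of one protein sequence run at different concentrations or buffers and across linkers. A negative Z-score can be read as non-binding.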
# [2] = biological target: Neu5Ac(a2-6)Gal(b1-4)GlcNAc(b1-2)Man(a1-3)[Neu5Ac(a2-3)Gal(b1-4)GlcNAc(b1-2)Man(a1-6)]Man(b1-4)GlcNAc(b1-4)GlcNAc
# Method in brief: as §1
# [3] = biological target: Neu5Ac(a2-6)Gal(b1-4)GlcNAc(b1-2)Man(a1-3)[Neu5Ac(a2-6)Gal(b1-4)GlcNAc(b1-2)Man(a1-6)]Man(b1-4)GlcNAc(b1-4)GlcNAc
# Method in brief: as §1
# [4] = biological target: Neu5Ac(a2-6)Gal(b1-4)GlcNAc(b1-2)Man(a1-3)[Neu5Ac(a2-6)Gal(b1-4)GlcNAc(b1-2)Man(a1-6)]Man(b1-4)GlcNAc(b1-4)[Fuc(a1-6)]GlcNAc
# Method in brief: as §1
# [5] = biological target: Neu5Ac(a2-6)Gal(b1-4)GlcNAc(b1-2)Man(a1-6)Man(b1-4)GlcNAc(b1-4)GlcNAc
# Method in brief: as §1
# [6] = biological target: Neu5Ac(a2-6)Gal(b1-4)GlcNAc(b1-2)Man(a1-6)[Gal(b1-4)GlcNAc(b1-2)Man(a1-3)]Man(b1-4)GlcNAc(b1-4)GlcNAc
# Method in brief: as §1
# [7] = biological target: Neu5Ac(a2-6)Gal(b1-4)GlcNAc(b1-2)Man(a1-6)[GlcNAc(b1-2)Man(a1-3)]Man(b1-4)GlcNAc(b1-4)GlcNAc
# Method in brief: as §1
# [8] = biological target: Neu5Ac(a2-6)Gal(b1-4)GlcNAc(b1-2)Man(a1-6)[Man(a1-3)]Man(b1-4)GlcNAc(b1-4)GlcNAc
# Method in brief: as §1
# [9] = biological target: Neu5Ac(a2-6)Gal(b1-4)GlcNAc(b1-2)[Neu5Ac(a2-6)Gal(b1-4)GlcNAc(b1-4)]Man(a1-3)[GlcNAc(b1-4)][Neu5Ac(a2-6)Gal(b1-4)GlcNAc(b1-2)[Neu5Ac(a2-6)Gal(b1-4)GlcNAc(b1-6)]Man(a1-6)]Man(b1-4)GlcNAc(b1-4)GlcNAc
# Method in brief: as §1
# [10] = biological target: Neu5Ac(a2-6)Gal(b1-4)GlcNAc(b1-2)[Neu5Ac(a2-6)Gal(b1-4)GlcNAc(b1-4)]Man(a1-3)[GlcNAc(b1-4)][Neu5Ac(a2-6)Gal(b1-4)GlcNAc(b1-4)Man(a1-6)]Man(b1-4)GlcNAc(b1-4)GlcNAc
# Method in brief: as §1
# [11] = biological target: Neu5Ac(a2-6)Gal(b1-4)GlcNAc(b1-2)[Neu5Ac(a2-6)Gal(b1-4)GlcNAc(b1-6)]Man(a1-6)[Neu5Ac(a2-6)Gal(b1-4)GlcNAc(b1-2)Man(a1-3)][GlcNAc(b1-4)]Man(b1-4)GlcNAc(b1-4)GlcNAc
# Method in brief: as §1
# [12] = biological target: Neu5Ac(a2-6)Gal(b1-4)GlcNAc(b1-3)Gal(b1-3)GlcNAc
# Method in brief: as §1
# [13] = biological target: Neu5Ac(a2-6)Gal(b1-4)GlcNAc(b1-3)Gal(b1-4)GlcNAc
# Method in brief: as §1
# [14] = biological target: Neu5Ac(a2-6)Gal(b1-4)GlcNAc(b1-3)Gal(b1-4)GlcNAc(b1-2)Man(a1-3)[Neu5Ac(a2-6)Gal(b1-4)GlcNAc(b1-3)Gal(b1-4)GlcNAc(b1-2)Man(a1-6)]GalNAc
# Method in brief: as §1
# [15] = biological target: Neu5Ac(a2-6)Gal(b1-4)GlcNAc(b1-3)Gal(b1-4)GlcNAc(b1-3)Gal(b1-4)GlcNAc
# Method in brief: as §1
# [16] = biological target: Neu5Ac(a2-6)Gal(b1-4)GlcNAc(b1-3)Gal(b1-4)GlcNAc(b1-3)Gal(b1-4)GlcNAc(b1-2)Man(a1-3)[Neu5Ac(a2-6)Gal(b1-4)GlcNAc(b1-3)Gal(b1-4)GlcNAc(b1-3)Gal(b1-4)GlcNAc(b1-2)Man(a1-6)]GalNAc
# Method in brief: as §1
# [17] = biological target: Neu5Ac(a2-6)Gal(b1-4)GlcNAc(b1-3)Gal(b1-4)GlcNAc(b1-3)GalNAc
# Method in brief: as §1
# [18] = biological target: Neu5Ac(a2-6)Gal(b1-4)GlcNAc(b1-3)Gal(b1-4)GlcNAc(b1-3)[Neu5Ac(a2-6)Gal(b1-4)GlcNAc(b1-3)Gal(b1-4)GlcNAc(b1-6)]GalNAc
# Method in brief: as §1
# [19] = biological target: Neu5Ac(a2-6)Gal(b1-4)GlcNAc(b1-3)Gal(b1-4)GlcNAc(b1-6)[Gal(b1-3)]GalNAc
# Method in brief: as §1
# [20] = biological target: Neu5Ac(a2-6)Gal(b1-4)GlcNAc(b1-3)Gal(b1-4)[Fuc(a1-3)]GlcNAc(b1-3)Gal(b1-4)[Fuc(a1-3)]GlcNAc
# Method in brief: as §1
# [21] = biological target: Neu5Ac(a2-6)Gal(b1-4)GlcNAc(b1-3)GalNAc
# Method in brief: as §1
# [22] = biological target: Neu5Ac(a2-6)Gal(b1-4)GlcNAc(b1-3)[Neu5Ac(a2-6)Gal(b1-4)GlcNAc(b1-6)]GalNAc
# Method in brief: as §1
# [23] = biological target: Neu5Ac(a2-6)Gal(b1-4)GlcNAc(b1-6)GalNAc
# Method in brief: as §1
# [24] = biological target: Neu5Ac(a2-6)Gal(b1-4)GlcNAc(b1-6)[Gal(b1-3)GlcNAc(b1-3)]Gal(b1-4)Glc
# Method in brief: as §1
# [25] = biological target: Neu5Ac(a2-6)Gal(b1-4)GlcNAc(b1-6)[Gal(b1-3)]GalNAc
# Method in brief: as §1
# [26] = biological target: Neu5Ac(a2-6)Gal(b1-4)GlcNAc6S
# Method in brief: as §1
# Neu5Ac(a2-6)GalNAc = biological target: Neu5Ac(a2-6)GalNAc
# Method in brief: as §1
# [27] = biological target: Neu5Ac(a2-6)GalNAc(b1-4)GlcNAc
# Method in brief: as §1
# [28] = biological target: Neu5Ac(a2-6)GalNAc(b1-4)GlcNAc6S
# Method in brief: as §1
# [29] = biological target: Neu5Ac(a2-6)GlcNAc(b1-4)GlcNAc
# Method in brief: as §1
# [30] = biological target: Neu5Ac(a2-6)GlcNAc(b1-4)GlcNAc(b1-4)GlcNAc
# Method in brief: as §1
binder,measurement,setting,value
Banana lectin (Musa acuminata) (protein) MNGAIKVGAHGGNGGSAFDMGPAYRIISVKIFSGDVVDGVDVTFTYYGKTETRHYGGSGGTPHEIVLQEGEYLVGMAGEVANYHGAVVLGKLGFSTNKKAYGPFGNTGGTPFSLPIAAGKISGFFGRGGKFLDAIGVYLEPLEHHHHHH,glycan array binding signal (z-score),[1],0.661
same,glycan array binding signal (z-score),[2],-0.063
same,glycan array binding signal (z-score),[3],-0.135
same,glycan array binding signal (z-score),[4],-0.093
same,glycan array binding signal (z-score),[5],-0.065
same,glycan array binding signal (z-score),[6],-0.168
same,glycan array binding signal (z-score),[7],-0.118
same,glycan array binding signal (z-score),[8],1.79
same,glycan array binding signal (z-score),[9],-0.197
same,glycan array binding signal (z-score),[10],-0.176
same,glycan array binding signal (z-score),[11],-0.152
same,glycan array binding signal (z-score),[12],-0.193
same,glycan array binding signal (z-score),[13],-0.164
same,glycan array binding signal (z-score),[14],-0.105
same,glycan array binding signal (z-score),[15],-0.171
same,glycan array binding signal (z-score),[16],-0.148
same,glycan array binding signal (z-score),[17],-0.158
same,glycan array binding signal (z-score),[18],-0.134
same,glycan array binding signal (z-score),[19],-0.189
same,glycan array binding signal (z-score),[20],-0.134
same,glycan array binding signal (z-score),[21],-0.16
same,glycan array binding signal (z-score),[22],-0.174
same,glycan array binding signal (z-score),[23],-0.154
same,glycan array binding signal (z-score),[24],-0.184
same,glycan array binding signal (z-score),[25],-0.155
same,glycan array binding signal (z-score),[26],-0.161
same,glycan array binding signal (z-score),Neu5Ac(a2-6)GalNAc,-0.17
same,glycan array binding signal (z-score),[27],-0.19
same,glycan array binding signal (z-score),[28],-0.193
same,glycan array binding signal (z-score),[29],-0.158
same,glycan array binding signal (z-score),[30],-0.197
